Laboratory results taken from paper PMC4336329 (PLoS ONE, 2015).
In all, about 310,000 compounds went through this assay and about 14,000 (4.5%) showed an effect of 50% or more. The effect is printed as a negative number. The list shows a part of the results.

Target: human ether-à-go-go-related gene (hERG) potassium channel (human, UniProt Q12809)
Assay: primary screen, population patch clamp on CHO cells stably expressing hERG
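Also: peak tail current of the secondary pulse compared with the same well before compound.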

Chain of human ether-à-go-go-related gene (hERG) potassium channel (Q12809 whole entry, looked up): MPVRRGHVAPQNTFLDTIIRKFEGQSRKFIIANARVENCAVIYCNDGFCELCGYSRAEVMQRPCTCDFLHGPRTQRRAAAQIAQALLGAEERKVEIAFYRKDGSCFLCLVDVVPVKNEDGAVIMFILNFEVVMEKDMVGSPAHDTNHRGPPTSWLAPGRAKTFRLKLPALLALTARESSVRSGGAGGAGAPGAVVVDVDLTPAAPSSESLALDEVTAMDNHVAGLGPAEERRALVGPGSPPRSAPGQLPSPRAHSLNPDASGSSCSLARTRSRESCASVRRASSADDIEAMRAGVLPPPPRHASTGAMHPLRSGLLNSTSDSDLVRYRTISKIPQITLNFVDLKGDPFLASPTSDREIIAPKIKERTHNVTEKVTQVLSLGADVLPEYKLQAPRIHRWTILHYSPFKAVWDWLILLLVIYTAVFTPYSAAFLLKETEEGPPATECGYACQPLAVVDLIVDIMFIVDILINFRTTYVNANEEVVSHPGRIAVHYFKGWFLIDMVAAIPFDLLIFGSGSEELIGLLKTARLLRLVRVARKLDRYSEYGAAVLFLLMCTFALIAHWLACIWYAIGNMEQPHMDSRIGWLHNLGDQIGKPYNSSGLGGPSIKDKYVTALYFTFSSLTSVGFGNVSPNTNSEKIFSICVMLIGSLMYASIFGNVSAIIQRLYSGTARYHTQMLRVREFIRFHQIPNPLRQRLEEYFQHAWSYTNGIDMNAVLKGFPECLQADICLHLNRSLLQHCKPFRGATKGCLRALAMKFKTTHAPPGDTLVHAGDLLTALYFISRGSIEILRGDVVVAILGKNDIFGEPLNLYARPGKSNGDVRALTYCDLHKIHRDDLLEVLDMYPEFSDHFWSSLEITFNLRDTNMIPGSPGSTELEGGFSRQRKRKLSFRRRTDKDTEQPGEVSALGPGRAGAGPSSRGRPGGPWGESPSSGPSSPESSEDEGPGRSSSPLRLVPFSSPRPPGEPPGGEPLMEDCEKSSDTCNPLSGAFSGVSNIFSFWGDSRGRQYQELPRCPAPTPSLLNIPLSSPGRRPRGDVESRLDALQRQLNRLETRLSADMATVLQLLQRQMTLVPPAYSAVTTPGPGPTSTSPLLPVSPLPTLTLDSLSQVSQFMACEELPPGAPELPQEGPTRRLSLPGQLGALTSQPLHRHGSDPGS

Row | Compound | hERG current change (%, negative = inhibition) at 10uM
1 | c1ccc(Nc2n[nH]nc2-c2ccccc2)cc1 | -39.5%
2 | O=C(NCc1ccco1)c1cccc(NS(=O)(=O)c2ccccc2F)c1 | -6.09%
3 | C=C1c2ccccc2S(=O)(=O)N(Cc2ccccc2)C1COCc1ccccc1 (stereo not drawn) | -3.54%
4 | N#Cc1ccccc1OCC(=O)NNC(=O)CNC(=O)c1cccc(Br)c1 | 0.905%
5 | O=C(Nc1ccc(N2CCCCC2)cc1)c1ccc(F)cc1F | 9.43%
6 | O=C(CN1CCCCCCC1)N/N=C/c1ccc(F)c(F)c1 | -33.7%
7 | Cc1cccc(N(C(=O)CNC(=O)c2cccs2)C(C(=O)NC2CCCC2)c2cccnc2)c1 (stereo not drawn) | 1.66%
8 | O=[N+]([O-])c1cc(F)c(N2CCCCC2)cc1N1CCOCC1 | -31.8%
9 | COc1ccccc1C(=O)N/C(=C/c1ccc(Br)cc1)C(=O)N1CCCC1 | -48.9%
10 | COc1nc(N)nc(CC(=O)C2CC2)n1 | 10.2%
11 | O=C(CN1CCN(S(=O)(=O)c2cccc(Cl)c2)CC1)N1CCCCC1 | -24.8%
12 | Cc1cc(C)n(C(=O)CNc2ccccc2Cl)n1 | 13.5%
13 | Cc1cc(NC(=O)/C=C/c2ccco2)ccc1NC(=O)c1ccccc1 | 15.5%
14 | O=C(O)c1ccc(/C=N/n2c(C3CCCCC3)n[nH]c2=S)cc1 | 17.2%
15 | CCCC(C)c1nnc(NC(=O)COc2ccc3c(c2)OCO3)s1 (stereo not drawn) | 8.27%
16 | CCc1ccc(NC(=O)C(=O)N/N=C(\C)CC(=O)NCCOC)cc1 | -2.99%
17 | Cn1nnnc1SCc1cc(=O)n2ccsc2n1 | 2.28%
18 | Cc1nn(C)c(Oc2cccc(C(F)(F)F)c2)c1C#N | -7.4%
19 | COC(=O)c1c(NC(=O)C2=COCCO2)sc(C)c1C | 2.14%
20 | CC(=O)c1cc(C#N)c(Oc2ccc(F)cc2)nc1C | 13.7%
21 | COc1cccc(NC(=O)COC(=O)Cc2ccc(Cl)cc2)c1 | 10.7%
22 | Cc1nn(C)cc1/C=N\NC(=O)c1csc2c1CCCC2 | 23.2%
23 | CCOP(=O)(OCC)c1nc(-c2cccc3ccccc23)oc1NCc1ccccc1 | 10.2%

Row | Compound | hERG current change (%, negative = inhibition) at 10uM
24 | CCNC(=O)COC(=O)c1cc(C)nc2ccccc12 | -2.84%
25 | Cn1c(=O)cc(Nc2ccccc2)c2c(=O)n(-c3ccccc3)c(=O)n(-c3ccccc3)c21 | -16.5%
26 | Cc1cc(N)n2nc(C)c(-c3ccc(Cl)cc3)c2n1 | -4.26%
27 | COc1cc(CNCCc2ccccc2)ccc1OCC(N)=O.Cl | -17.4%
28 | O=C(CC(=O)NN=C1CCCC1)NCCc1ccccc1 | 3.81%
29 | O=c1c(-c2nnc(SCc3ccc(Cl)cc3Cl)o2)cccn1Cc1ccccc1 | -62.5%
30 | CC1(C)CC(=O)C(N=Nc2c(Cl)cc(Cl)cc2Cl)=C(O)C1 | 27.6%
31 | O=C(CN1CCN(C(=O)c2ccccc2)CC1)Nc1ncc(Br)cc1Br | -78.1%
32 | O=C(CSc1nnc(-c2ccncc2)n1CC1CCCO1)Nc1nccs1 (stereo not drawn) | 16.9%
33 | COc1ccc(-c2nnc(SCC(=O)N(Cc3ccccc3)C(C)(C)C)o2)cc1OC | -22.9%
34 | CN(Cc1cccnc1)Cc1cn(C)nc1-c1cccc(Cl)c1 | -39.7%
35 | O=C(Cn1ccc(C(F)(F)F)n1)N=Nc1c(O)[nH]c2ccc(Br)cc12 | -12%
36 | CC(=O)CC(C)(C)S(=O)(=O)c1ccc(Oc2ccc(S(=O)(=O)C(C)(C)CC(C)=O)cc2)cc1 | -5.22%
37 | Cl.O=C(c1c(F)cccc1F)N(Cc1ccccn1)C1CC1 | 3.16%
38 | C=CCOc1ccc(C2/C(=C(/O)c3ccc4c(c3)CC(C)O4)C(=O)C(=O)N2CCCN2CCOCC2)cc1 (stereo not drawn) | 14%
39 | CCCC[C@@H]1CCCO[C@@](C(=O)NCc2cc(C)n(C)n2)(C(F)(F)F)C1 | -2.7%
40 | COc1ccc(NC(=O)CCNC(=O)Cn2ccc3ccccc3c2=O)cc1OC | 14.2%
41 | CC(=O)c1coc2ccc(OCCN3CCCCC3)cc12 | -10.3%
42 | O=C(O)c1ccc(NCc2cccnc2)cc1 | 16.6%
43 | Cc1ccccc1NC(=O)C12CC3CCC1(C)C3(C)CO2 (stereo not drawn) | 1.82%
44 | S=C(NCc1ccco1)N/N=C/c1ccccc1Cl | 14.1%
45 | N#CCC(=O)Nc1ccc(C(=O)Nc2ccc3c(c2)OCO3)cc1 | 6.93%
